# Source: the supplement of paper PMC8728848
# This is one part of the list.
# Key:
# Test in all cases: glycan array binding signal (z-score within array); higher = stronger binding
# Conditions in all cases: glycan notation: IUPAC condensed, linker removed
# [1] = molecular target: GlcNAc(b1-2)Gal(b1-3)GalNAc
# Method in brief: (§1)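 Arrays were curated from the Consortium for Functional Glycomics database, 3228 in total, and kept only where the protein sequence was available. Binding is expressed as a within-array Z-score. This score was averaged across arrays of the same protein sequence at different concentrations or buffers and across linkers, and negative values can be read as non-binding.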
# [2] = molecular target: GlcNAc(b1-2)Man(a1-3)[GlcNAc(b1-2)Man(a1-6)]Man(b1-4)GlcNAc(b1-4)GlcNAc
# Method in brief: as §1
# [3] = molecular target: GlcNAc(b1-2)Man(a1-3)[GlcNAc(b1-2)Man(a1-6)]Man(b1-4)GlcNAc(b1-4)[Fuc(a1-6)]GlcNAc
# Method in brief: as §1
# [4] = molecular target: GlcNAc(b1-2)Man(a1-3)[GlcNAc(b1-4)][GlcNAc(b1-2)Man(a1-6)]Man(b1-4)GlcNAc(b1-4)GlcNAc
# Method in brief: as §1
# [5] = molecular target: GlcNAc(b1-2)Man(a1-3)[GlcNAc(b1-4)][GlcNAc(b1-2)Man(a1-6)]Man(b1-4)GlcNAc(b1-4)[Fuc(a1-6)]GlcNAc
# Method in brief: as §1
# [6] = molecular target: GlcNAc(b1-2)[GlcNAc(b1-4)]Man(a1-3)[GlcNAc(b1-2)Man(a1-6)]Man(b1-4)GlcNAc(b1-4)GlcNAc
# Method in brief: as §1
# [7] = molecular target: GlcNAc(b1-2)[GlcNAc(b1-4)]Man(a1-3)[GlcNAc(b1-4)][GlcNAc(b1-2)Man(a1-6)]Man(b1-4)GlcNAc(b1-4)GlcNAc
# Method in brief: as §1
# [8] = molecular target: GlcNAc(b1-2)[GlcNAc(b1-4)]Man(a1-3)[GlcNAc(b1-4)][GlcNAc(b1-2)[GlcNAc(b1-6)]Man(a1-6)]Man(b1-4)GlcNAc(b1-4)GlcNAc
# Method in brief: as §1
# [9] = molecular target: GlcNAc(b1-2)[GlcNAc(b1-4)]Man(a1-3)[GlcNAc(b1-4)][GlcNAc(b1-2)[GlcNAc(b1-6)]Man(a1-6)]Man(b1-4)GlcNAc(b1-4)[Fuc(a1-6)]GlcNAc
# Method in brief: as §1
# [10] = molecular target: GlcNAc(b1-2)[GlcNAc(b1-6)]Man(a1-6)[GlcNAc(b1-2)Man(a1-3)]Man(b1-4)GlcNAc(b1-4)GlcNAc
# Method in brief: as §1
# [11] = molecular target: GlcNAc(b1-2)[GlcNAc(b1-6)]Man(a1-6)[GlcNAc(b1-2)Man(a1-3)]Man(b1-4)GlcNAc(b1-4)[Fuc(a1-6)]GlcNAc
# Method in brief: as §1
# [12] = molecular target: GlcNAc(b1-2)[GlcNAc(b1-6)]Man(a1-6)[GlcNAc(b1-4)][GlcNAc(b1-2)Man(a1-3)]Man(b1-4)GlcNAc(b1-4)GlcNAc
# Method in brief: as §1
# GlcNAc(b1-3)Fuc = molecular target: GlcNAc(b1-3)Fuc
# Method in brief: as §1
# GlcNAc(b1-3)Gal = molecular target: GlcNAc(b1-3)Gal
# Method in brief: as §1
# [13] = molecular target: GlcNAc(b1-3)Gal(b1-3)GalNAc
# Method in brief: as §1
# GlcNAc(b1-3)Gal(b1-4)Glc = molecular target: GlcNAc(b1-3)Gal(b1-4)Glc
# Method in brief: as §1
# [14] = molecular target: GlcNAc(b1-3)Gal(b1-4)GlcNAc
# Method in brief: as §1
# [15] = molecular target: GlcNAc(b1-3)Gal(b1-4)GlcNAc(b1-2)Man(a1-3)[GlcNAc(b1-3)Gal(b1-4)GlcNAc(b1-2)Man(a1-6)]Man(b1-4)GlcNAc(b1-4)GlcNAc
# Method in brief: as §1
# [16] = molecular target: GlcNAc(b1-3)Gal(b1-4)GlcNAc(b1-2)Man(a1-3)[GlcNAc(b1-3)Gal(b1-4)GlcNAc(b1-2)Man(a1-6)]Man(b1-4)GlcNAc(b1-4)[Fuc(a1-6)]GlcNAc
# Method in brief: as §1
# [17] = molecular target: GlcNAc(b1-3)Gal(b1-4)GlcNAc(b1-2)[GlcNAc(b1-3)Gal(b1-4)GlcNAc(b1-6)]Man(a1-6)[GlcNAc(b1-3)Gal(b1-4)GlcNAc(b1-2)Man(a1-3)]Man(b1-4)GlcNAc(b1-4)GlcNAc
# Method in brief: as §1
# [18] = molecular target: GlcNAc(b1-3)Gal(b1-4)GlcNAc(b1-3)Gal(b1-4)GlcNAc
# Method in brief: as §1
# [19] = molecular target: GlcNAc(b1-3)Gal(b1-4)GlcNAc(b1-3)Gal(b1-4)GlcNAc(b1-2)Man(a1-3)[GlcNAc(b1-3)Gal(b1-4)GlcNAc(b1-3)Gal(b1-4)GlcNAc(b1-2)Man(a1-6)]Man(b1-4)GlcNAc(b1-4)GlcNAc
# Method in brief: as §1
# [20] = molecular target: GlcNAc(b1-3)Gal(b1-4)GlcNAc(b1-3)Gal(b1-4)GlcNAc(b1-2)Man(a1-3)[GlcNAc(b1-3)Gal(b1-4)GlcNAc(b1-3)Gal(b1-4)GlcNAc(b1-2)Man(a1-6)]Man(b1-4)GlcNAc(b1-4)[Fuc(a1-6)]GlcNAc
# Method in brief: as §1
# [21] = molecular target: GlcNAc(b1-3)Gal(b1-4)GlcNAc(b1-3)Gal(b1-4)GlcNAc(b1-2)[GlcNAc(b1-3)Gal(b1-4)GlcNAc(b1-3)Gal(b1-4)GlcNAc(b1-6)]Man(a1-6)[GlcNAc(b1-3)Gal(b1-4)GlcNAc(b1-3)Gal(b1-4)GlcNAc(b1-2)Man(a1-3)]Man(b1-4)GlcNAc(b1-4)[Fuc(a1-6)]GlcNAc
# Method in brief: as §1
# [22] = molecular target: GlcNAc(b1-3)Gal(b1-4)GlcNAc(b1-3)Gal(b1-4)GlcNAc(b1-3)Gal(b1-4)GlcNAc(b1-2)Man(a1-3)[GlcNAc(b1-3)Gal(b1-4)GlcNAc(b1-3)Gal(b1-4)GlcNAc(b1-3)Gal(b1-4)GlcNAc(b1-2)Man(a1-6)]Man(b1-4)GlcNAc(b1-4)GlcNAc
# Method in brief: as §1
# [23] = molecular target: GlcNAc(b1-3)Gal(b1-4)GlcNAc(b1-3)Gal(b1-4)GlcNAc(b1-3)Gal(b1-4)GlcNAc(b1-2)Man(a1-3)[GlcNAc(b1-3)Gal(b1-4)GlcNAc(b1-3)Gal(b1-4)GlcNAc(b1-3)Gal(b1-4)GlcNAc(b1-2)Man(a1-6)]Man(b1-4)GlcNAc(b1-4)[Fuc(a1-6)]GlcNAc
# Method in brief: as §1
# [24] = molecular target: GlcNAc(b1-3)Gal(b1-4)GlcNAc(b1-3)Gal(b1-4)GlcNAc(b1-3)Gal(b1-4)GlcNAc(b1-2)[GlcNAc(b1-3)Gal(b1-4)GlcNAc(b1-3)Gal(b1-4)GlcNAc(b1-3)Gal(b1-4)GlcNAc(b1-6)]Man(a1-6)[GlcNAc(b1-3)Gal(b1-4)GlcNAc(b1-3)Gal(b1-4)GlcNAc(b1-3)Gal(b1-4)GlcNAc(b1-2)Man(a1-3)]Man(b1-4)GlcNAc(b1-4)[Fuc(a1-6)]GlcNAc
# Method in brief: as §1
# [25] = molecular target: GlcNAc(b1-3)Gal(b1-4)GlcNAc(b1-3)Gal(b1-4)GlcNAc(b1-3)Gal(b1-4)GlcNAc(b1-3)Gal(b1-4)GlcNAc(b1-2)Man(a1-3)[GlcNAc(b1-3)Gal(b1-4)GlcNAc(b1-3)Gal(b1-4)GlcNAc(b1-3)Gal(b1-4)GlcNAc(b1-3)Gal(b1-4)GlcNAc(b1-2)Man(a1-6)]Man(b1-4)GlcNAc(b1-4)GlcNAc
# Method in brief: as §1
# [26] = molecular target: GlcNAc(b1-3)Gal(b1-4)GlcNAc(b1-3)Gal(b1-4)GlcNAc(b1-3)Gal(b1-4)GlcNAc(b1-3)Gal(b1-4)GlcNAc(b1-2)Man(a1-3)[GlcNAc(b1-3)Gal(b1-4)GlcNAc(b1-3)Gal(b1-4)GlcNAc(b1-3)Gal(b1-4)GlcNAc(b1-3)Gal(b1-4)GlcNAc(b1-2)Man(a1-6)]Man(b1-4)GlcNAc(b1-4)[Fuc(a1-6)]GlcNAc
# Method in brief: as §1
# [27] = molecular target: GlcNAc(b1-3)Gal(b1-4)GlcNAc(b1-3)Gal(b1-4)GlcNAc(b1-3)Gal(b1-4)GlcNAc(b1-3)Gal(b1-4)GlcNAc(b1-2)[GlcNAc(b1-3)Gal(b1-4)GlcNAc(b1-3)Gal(b1-4)GlcNAc(b1-3)Gal(b1-4)GlcNAc(b1-3)Gal(b1-4)GlcNAc(b1-6)]Man(a1-6)[GlcNAc(b1-3)Gal(b1-4)GlcNAc(b1-3)Gal(b1-4)GlcNAc(b1-3)Gal(b1-4)GlcNAc(b1-3)Gal(b1-4)GlcNAc(b1-2)Man(a1-3)]Man(b1-4)GlcNAc(b1-4)[Fuc(a1-6)]GlcNAc
# Method in brief: as §1
# [28] = molecular target: GlcNAc(b1-3)Gal(b1-4)GlcNAc(b1-3)Gal(b1-4)GlcNAc(b1-3)GalNAc
# Method in brief: as §1
# [29] = molecular target: GlcNAc(b1-3)Gal(b1-4)GlcNAc(b1-3)GalNAc
# Method in brief: as §1
# [30] = molecular target: GlcNAc(b1-3)Gal(b1-4)GlcNAc(b1-3)[GlcNAc(b1-3)Gal(b1-4)GlcNAc(b1-3)]GalNAc
# Method in brief: as §1
# [31] = molecular target: GlcNAc(b1-3)Gal(b1-4)GlcNAc(b1-6)[Gal(b1-3)]GalNAc
# Method in brief: as §1
# [32] = molecular target: GlcNAc(b1-3)Gal(b1-4)GlcNAc(b1-6)[GlcNAc(b1-3)Gal(b1-3)]GalNAc
# Method in brief: as §1
# [33] = molecular target: GlcNAc(b1-3)Gal(b1-4)GlcNAc(b1-6)[GlcNAc(b1-3)]Gal(b1-4)GlcNAc
# Method in brief: as §1
# GlcNAc(b1-3)GalNAc = molecular target: GlcNAc(b1-3)GalNAc
# Method in brief: as §1
binder,measurement,setting,value
PX9961V-pdi-562-26-562 (Parabacteroides distasonis) (protein) EIFSEITTDNYYQNSNNIYAALVNNYAKAFSTGWSDARYFLQEVTADQLMIPTRGKHGYNGGEYVRLHEHKWTVEENFVYNGWAAPFQGIALCNNTLSDFENLDFSTFKLTEETKNEYIAELRALRVWNYMFLIDFFRHVPIVTDIEEVKAQSTPLEVFNFMESELLAILPDLPKNRGVSRFDQAGVASILVRLYLNAEKWIGISKYDECEQMAQAILDGKYGEYSIDPDYRGPFRSGINGYRSKENIMEFAIKKNYFEASWLYNMWMHYQDRYSLDNDWQGWNGGNLAPSRDLYGNLYQDKLGMPFEKFPDGDIRKKAFRVISNDGDYEGFFLMGTQYKFDYEKGYGFTDEVITGTEEYNGKPLVYVDQVGRFSEGETGLAKGSHVIYGEENTGYRLIKFPWLPQSKDLFQMNSIPEIRLAEIYYSLAECKYRSGDKIGAARLLDVVRKRYYKAEDWSKFSYESNISKLTDDEFVDELGREFIGERHRRIDLIRWNRFSEGAWWDKTPDATNQDVFPIPYRALNANPLLKQTTAGF,glycan array binding signal (z-score),[1],-0.693
same,glycan array binding signal (z-score),[2],-0.524
same,glycan array binding signal (z-score),[3],-0.085
same,glycan array binding signal (z-score),[4],-0.461
same,glycan array binding signal (z-score),[5],-0.145
same,glycan array binding signal (z-score),[6],0.307
same,glycan array binding signal (z-score),[7],-0.324
same,glycan array binding signal (z-score),[8],-0.752
same,glycan array binding signal (z-score),[9],-0.782
same,glycan array binding signal (z-score),[10],-0.51
same,glycan array binding signal (z-score),[11],-0.457
same,glycan array binding signal (z-score),[12],-0.766
same,glycan array binding signal (z-score),GlcNAc(b1-3)Fuc,-0.505
same,glycan array binding signal (z-score),GlcNAc(b1-3)Gal,-0.353
same,glycan array binding signal (z-score),[13],-0.362
same,glycan array binding signal (z-score),GlcNAc(b1-3)Gal(b1-4)Glc,-0.351
same,glycan array binding signal (z-score),[14],-0.416
same,glycan array binding signal (z-score),[15],-0.375
same,glycan array binding signal (z-score),[16],2.15
same,glycan array binding signal (z-score),[17],0.976
same,glycan array binding signal (z-score),[18],-0.694
same,glycan array binding signal (z-score),[19],0.749
same,glycan array binding signal (z-score),[20],-0.392
same,glycan array binding signal (z-score),[21],-0.087
same,glycan array binding signal (z-score),[22],1.27
same,glycan array binding signal (z-score),[23],0.018
same,glycan array binding signal (z-score),[24],-0.05
same,glycan array binding signal (z-score),[25],0.359
same,glycan array binding signal (z-score),[26],0.5
same,glycan array binding signal (z-score),[27],-0.125
same,glycan array binding signal (z-score),[28],-0.195
same,glycan array binding signal (z-score),[29],-0.335
same,glycan array binding signal (z-score),[30],-0.471
same,glycan array binding signal (z-score),[31],-0.414
same,glycan array binding signal (z-score),[32],-0.019
same,glycan array binding signal (z-score),[33],-0.504
same,glycan array binding signal (z-score),GlcNAc(b1-3)GalNAc,-0.21
